Source: paper PMC4336329 (PLoS ONE, 2015)
The campaign covered roughly 310,000 compounds. About 2,200 (0.71%) showed an effect of 50% or more. Effects have a minus sign here. Some of the results follow.

Biological target: human ether-à-go-go-related gene (hERG) potassium channel (human, UniProt Q12809)
Assay: primary screen, population patch clamp on CHO cells stably expressing hERG

Chain of human ether-à-go-go-related gene (hERG) potassium channel (Q12809 whole entry, looked up): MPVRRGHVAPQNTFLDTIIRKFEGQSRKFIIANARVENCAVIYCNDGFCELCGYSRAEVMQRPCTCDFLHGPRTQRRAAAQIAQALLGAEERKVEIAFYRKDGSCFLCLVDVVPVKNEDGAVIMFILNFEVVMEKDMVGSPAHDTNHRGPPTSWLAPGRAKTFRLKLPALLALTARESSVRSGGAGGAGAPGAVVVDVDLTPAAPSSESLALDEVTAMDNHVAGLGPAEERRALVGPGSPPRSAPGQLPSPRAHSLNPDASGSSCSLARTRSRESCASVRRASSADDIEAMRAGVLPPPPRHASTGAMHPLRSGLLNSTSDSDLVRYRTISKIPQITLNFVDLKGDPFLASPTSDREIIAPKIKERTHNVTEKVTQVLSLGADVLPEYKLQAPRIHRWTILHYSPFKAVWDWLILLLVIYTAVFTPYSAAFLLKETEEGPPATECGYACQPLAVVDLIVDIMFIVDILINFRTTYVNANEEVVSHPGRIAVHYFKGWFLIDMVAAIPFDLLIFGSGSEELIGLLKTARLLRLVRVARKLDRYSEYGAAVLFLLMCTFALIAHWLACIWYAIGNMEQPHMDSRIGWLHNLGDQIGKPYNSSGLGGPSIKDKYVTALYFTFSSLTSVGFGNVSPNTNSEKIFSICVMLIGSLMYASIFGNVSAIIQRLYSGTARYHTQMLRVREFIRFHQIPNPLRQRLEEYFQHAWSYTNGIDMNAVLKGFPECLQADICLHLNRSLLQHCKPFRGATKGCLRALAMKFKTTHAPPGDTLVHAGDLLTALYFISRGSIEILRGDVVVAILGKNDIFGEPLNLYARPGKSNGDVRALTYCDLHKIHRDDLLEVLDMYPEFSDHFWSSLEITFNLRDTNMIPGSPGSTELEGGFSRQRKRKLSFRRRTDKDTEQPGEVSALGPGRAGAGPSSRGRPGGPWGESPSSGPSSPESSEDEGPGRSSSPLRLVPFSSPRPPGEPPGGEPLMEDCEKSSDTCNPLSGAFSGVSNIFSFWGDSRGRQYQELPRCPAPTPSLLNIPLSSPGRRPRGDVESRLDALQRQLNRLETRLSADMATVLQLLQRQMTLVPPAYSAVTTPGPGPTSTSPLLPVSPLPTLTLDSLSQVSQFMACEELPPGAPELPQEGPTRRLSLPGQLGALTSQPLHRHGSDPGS

| SMILES | hERG current change (%, negative = inhibition) at 1uM [%] |
| --- | --- |
| COC(=O)c1scc(C)c1NC(=O)Nc1ccccc1 | 1.55 |
| O=C(COC(=O)c1cc(Cl)ccc1O)NCCC1=CCCCC1 | 11.8 |
| Cc1ccc(C(=O)OCC(=O)Nc2ccccc2C(F)(F)F)cc1S(=O)(=O)N1CCOCC1 | 6.76 |
| CCCCP(=O)(CCCC)Cc1ccccc1O | 11.6 |
| COCCCNc1nc2c(-c3ccc(Cl)cc3)nnn2c2ccccc12 | -4.36 |
| N#CCc1c(C#N)c(N)nc(N2CCN(C=O)CC2)c1C#N | -7.03 |
| Cc1csc2c(N3CCN(C(=O)Nc4ccc(Cl)c(Cl)c4)CC3)ncnc12 | 10.9 |
| O=C(Nc1cccc2nsnc12)c1cccnc1Cl | -14.2 |
| Cc1onc(-c2c(Cl)cccc2Cl)c1/C(N)=N/OC(=O)C(C)(C)C | 18.2 |
| CCOC(=O)C1=C(COC(=O)/C=C/c2ccc(O)c(OC)c2)NC(=O)NC1C (centres unmarked) | 9.97 |
| CCOC(=O)Cc1csc(NC(=O)c2c(C)noc2C)n1 | 9.73 |
| O=C(NN1C(=O)C2C3C=CC(C4CC34)C2C1=O)c1cccc(Cl)c1 (centres unmarked) | 8.39 |
| CCC(=O)N1CCc2cc(S(=O)(=O)Nc3ccccc3C)ccc21 | 16.6 |
| Nc1ccc(-c2cc3ccccc3oc2=O)cc1 | 14 |
| COc1cccc(C(=O)NCCC2=CCCCC2)c1OC | 7.33 |
| CC(C)(C)c1ccc(OCCCN2CCCC2)cc1 | -10.1 |
| CN(C)CCOC(=O)Cc1ccc(Cl)cc1.Cl | -5.82 |
| COc1ccc(-n2nc(C(=O)NCC(=O)N3CCC4(CC3)OCCO4)c3ccccc3c2=O)cc1OC | 7.46 |
| CCCc1cc(C(=O)Nc2ccc(C#N)cc2)no1 | 7.15 |

| SMILES | hERG current change (%, negative = inhibition) at 1uM [%] |
| --- | --- |
| COc1ccc(/C=N/NC(=O)c2[nH]c(C)c(C(=O)N/N=C/c3ccc(OC)cc3)c2C)cc1 | 0.18 |
| COC(=O)C(Cc1cnc(Cl)s1)(C(=O)OC)c1ccc(C(F)(F)F)cc1[N+](=O)[O-] | 11.7 |
| CC(C)c1nc(SCC(=O)Nc2ccc(N3CCOCC3)cc2)c2ccccc2n1 | 2.09 |
| N#CCCN(C(=O)COC(=O)CNC(=O)c1cccs1)c1ccc(F)cc1 | -18.2 |
| COc1ccc2cc(C(=O)C3CCCN(C(=O)C4=NN(C)C(=O)CC4)C3)ccc2c1 (centres unmarked) | 1.78 |
| CCN(CC(=O)Nc1ccc2c(c1)OCCO2)C(=O)c1cccc(S(=O)(=O)N2CCOCC2)c1 | 11.3 |
| CCC(=O)Nc1nnc(CSCc2ccccc2)s1 | 5.46 |
| Nc1c(Cl)cc(-c2csc(N3CCCC3c3nc4cc(Cl)c(Cl)cc4n3CCCO)n2)cc1Cl (centres unmarked) | 9.5 |
| COc1cccc(OCc2cc(C(=O)NC3CCOCC3)no2)c1 | 17.9 |
| NS(=O)(=O)c1cccc(NC(=O)CCCNC(=O)c2ccc(Cl)cc2)c1 | 7.93 |
| O=c1oc2ccccc2c(Nc2ccc3ccccc3c2)c1[N+](=O)[O-] | 5.46 |
| CCOC(=O)C1CCN(C(=O)/C=C/c2cc(OC)c(OC)c(OC)c2)CC1 | 12.1 |
| Cc1c(NC2=C(Cl)C(=O)N(c3ccccc3Cl)C2=O)c(=O)n(-c2ccccc2)n1C | 4.96 |
| COc1ccc(NC(=O)COC(=O)CC2CCCCC2)cc1 | 5.46 |
| CC(C)(C)c1ccccc1NC(=O)Cn1cnc2cc([N+](=O)[O-])ccc2c1=O | 2.29 |
| O=C(Nc1ccc(N2CCOCC2)cc1N1CCOCC1)c1ccco1 | 9.41 |
| O=S(=O)(/N=C(\Sc1ccc(Cl)cc1)c1ccccc1)c1ccccc1 | 9.56 |
| Cc1cccc(OCCCN2CCCCCC2)c1 | -8.41 |
| Nc1ccccc1C(=O)NC1CCCCNC1=O (centres unmarked) | 4.7 |

| SMILES | hERG current change (%, negative = inhibition) at 1uM [%] |
| --- | --- |
| CC(Sc1ccc(S(=O)(=O)N2CCOCC2)cc1[N+](=O)[O-])C(=O)O (centres unmarked) | 8.37 |
| CCc1ccccc1NC(=O)CC(c1ccc(OC)cc1)n1cccc1 (centres unmarked) | 3.44 |
| O=C(CCl)NNc1nc(-c2ccccc2)c2cc(Cl)ccc2n1 | 3.96 |
| CCOP(=O)(OCC)C(Nc1cccc(C)c1)c1ccc(F)cc1 (centres unmarked) | 12.6 |
| CCn1c(SCC(=O)N/N=C/c2ccccc2OCC(=O)O)nnc1-c1ccc(OC)cc1 | 12 |
| Cn1c(=O)[nH]c(=O)c2c1nc(N1CCCCCC1)n2Cc1cccc2ccccc12 | -0.352 |
| Cn1c(=O)c(=O)n(C)c2cc(S(=O)(=O)N3CCCCC3)ccc21 | 3.27 |
| O=c1oc2cc(OCc3ccc(F)cc3F)ccc2cc1-c1ccc2ccccc2n1 | 6.99 |
| CCCn1c(SCC(=O)NCc2ccccc2Cl)n[nH]c1=O | 8.08 |
| C/C(=N\NC(=O)c1ccn(C)n1)c1cccc(NC(=O)c2ccc(C)s2)c1 | -8.31 |
| O=C(NC1CCN(C(=O)Nc2ccccc2Cl)CC1)c1cccc(F)c1 | 11.3 |
| COc1ccc(OC)c(-n2c(C)cc(/C=C3\C(=N)N4N=C(CC(=O)N5CCOCC5)SC4=NC3=O)c2C)c1 | 16 |
| Cc1cc(=O)[nH]c(SCC(=O)Nc2nc(-c3ccccc3)cs2)n1 | 11.5 |
| C=CCNC(=S)N/N=C/c1ccccc1OCCOc1ccccc1 | 3.84 |
| Br.Nc1ccc(Nc2nc(-c3ccncc3)cs2)cc1 | 3.54 |
| CC(=O)c1cnc2c(-c3ccc(Cl)cc3)cnn2c1C | 3.32 |
| Cc1noc(C)c1CSc1nnc2scc(-c3ccc(Cl)cc3)n12 | -8.44 |
| CCOC(=O)N1CCC(NC(=O)c2sc(-n3cccc3)nc2C)CC1 | 0.206 |
